Results published in PMC12820563.
The list shows a part of the results. The list includes weakly bound sequences.

Each sequence was assayed against T1, MBP-FoxP3dN (UniProt Q99JB6) (assay: PD-seq (MBP pull-down with sequencing)). Details: 20 mM Tris-HCl pH 7.5, 100 mM NaCl, 1.5 mM MgCl2, 0.4 uM protein, 0.1 uM dsDNA library, 30 min, room temperature, amylose pull-down; high values mean tight binding; double strand, one strand shown.
T1 sequence: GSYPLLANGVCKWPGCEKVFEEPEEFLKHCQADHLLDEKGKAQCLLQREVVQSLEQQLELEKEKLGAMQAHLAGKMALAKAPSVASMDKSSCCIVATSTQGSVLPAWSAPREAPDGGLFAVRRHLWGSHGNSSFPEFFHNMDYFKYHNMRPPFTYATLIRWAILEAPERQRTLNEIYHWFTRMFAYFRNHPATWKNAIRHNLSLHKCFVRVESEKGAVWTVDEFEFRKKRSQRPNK
“GATGATTGTTCTCCCAGCTGATGAATTTAAACTGTCGAGTAAACAAATTTTCCTAATCTTTCTGTTCAAGCGCCATCTAC” gave a binding signal (RPM ratio (pull-down/input)) of 0.299.
In the case of “GATGATTGTTCTCCCAGCTGATGAATTAGGCTGTTCGAGTAAACAAATTTTCCTAATCTTTCTGTTCAAGCGCCATCTAC”, the binding signal (RPM ratio (pull-down/input)) is reported as 0.907.
With “GATGATTGTTCTCCCAGCTGATGAATTCTAAAAATCGAGTAAACAAATTTTCCTAATCTTTCTGTTCAAGCGCCATCTAC” the binding signal (RPM ratio (pull-down/input)) was 0.177.
With “GATGATTGTTCTCCCAGCTGATGAATTCATGAGGTCGAGTAAACAAATTTTCCTAATCTTTCTGTTCAAGCGCCATCTAC” the binding signal (RPM ratio (pull-down/input)) was 0.344.
“GATGATTGTTCTCCCAGCTGATGAATTCTTTAGCTCGAGTAAACAAATTTTCCTAATCTTTCTGTTCAAGCGCCATCTAC” was tested, and the binding signal (RPM ratio (pull-down/input)) was 0.211.
In the case of “GATGATTGTTCTCCCAGCTGATGAATTCCTTGGATCGAGTAAACAAATTTTCCTAATCTTTCTGTTCAAGCGCCATCTAC”, the binding signal (RPM ratio (pull-down/input)) is reported as 0.188.
“GATGATTGTTCTCCCAGCTGATGAATTAAGGATGTCGAGTAAACAAATTTTCCTAATCTTTCTGTTCAAGCGCCATCTAC” showed a binding signal (RPM ratio (pull-down/input)) of 0.361.
With “GATGATTGTTCTCCCAGCTGATGAATTGGCCTGCTCGAGTAAACAAATTTTCCTAATCTTTCTGTTCAAGCGCCATCTAC” the binding signal (RPM ratio (pull-down/input)) was 0.486.
With “GATGATTGTTCTCCCAGCTGATGAATTTCATTGATCGAGTAAACAAATTTTCCTAATCTTTCTGTTCAAGCGCCATCTAC” the binding signal (RPM ratio (pull-down/input)) was 0.845.
“GATGATTGTTCTCCCAGCTGATGAATTTACGCGATCGAGTAAACAAATTTTCCTAATCTTTCTGTTCAAGCGCCATCTAC” showed a binding signal (RPM ratio (pull-down/input)) of 0.631.
With “GATGATTGTTCTCCCAGCTGATGAATTGACACTTTCGAGTAAACAAATTTTCCTAATCTTTCTGTTCAAGCGCCATCTAC” the binding signal (RPM ratio (pull-down/input)) was 0.59.
In the case of “GATGATTGTTCTCCCAGCTGATGAATTTCATCTCTCGAGTAAACAAATTTTCCTAATCTTTCTGTTCAAGCGCCATCTAC”, the binding signal (RPM ratio (pull-down/input)) is reported as 0.632.
“GATGATTGTTCTCCCAGCTGATGAATTAGATTGATCGAGTAAACAAATTTTCCTAATCTTTCTGTTCAAGCGCCATCTAC” showed a binding signal (RPM ratio (pull-down/input)) of 0.868.
“GATGATTGTTCTCCCAGCTGATGAATTACTTGGCTCGAGTAAACAAATTTTCCTAATCTTTCTGTTCAAGCGCCATCTAC” showed a binding signal (RPM ratio (pull-down/input)) of 0.302.
With “GATGATTGTTCTCCCAGCTGATGAATTATAGGACTCGAGTAAACAAATTTTCCTAATCTTTCTGTTCAAGCGCCATCTAC” the binding signal (RPM ratio (pull-down/input)) was 0.33.
“GATGATTGTTCTCCCAGCTGATGAATTGCTGTATTCGAGTAAACAAATTTTCCTAATCTTTCTGTTCAAGCGCCATCTAC” gave a binding signal (RPM ratio (pull-down/input)) of 1.86.
Work on “GATGATTGTTCTCCCAGCTGATGAATTGTCTTGATCGAGTAAACAAATTTTCCTAATCTTTCTGTTCAAGCGCCATCTAC” yielded a binding signal (RPM ratio (pull-down/input)) of 0.422.
Sequence “GATGATTGTTCTCCCAGCTGATGAATTTCTGTGGTCGAGTAAACAAATTTTCCTAATCTTTCTGTTCAAGCGCCATCTAC” has a binding signal (RPM ratio (pull-down/input)) of 0.335.
For “GATGATTGTTCTCCCAGCTGATGAATTATCCGCGTCGAGTAAACAAATTTTCCTAATCTTTCTGTTCAAGCGCCATCTAC”, the binding signal (RPM ratio (pull-down/input)) was 0.471.
In the case of “GATGATTGTTCTCCCAGCTGATGAATTGGTGTGTTCGAGTAAACAAATTTTCCTAATCTTTCTGTTCAAGCGCCATCTAC”, the binding signal (RPM ratio (pull-down/input)) is reported as 2.08.
With “GATGATTGTTCTCCCAGCTGATGAATTCAAAAGGTCGAGTAAACAAATTTTCCTAATCTTTCTGTTCAAGCGCCATCTAC” the binding signal (RPM ratio (pull-down/input)) was 0.193.
“GATGATTGTTCTCCCAGCTGATGAATTAAGGCAGTCGAGTAAACAAATTTTCCTAATCTTTCTGTTCAAGCGCCATCTAC” gave a binding signal (RPM ratio (pull-down/input)) of 0.549.
Work on “GATGATTGTTCTCCCAGCTGATGAATTCCCCAAATCGAGTAAACAAATTTTCCTAATCTTTCTGTTCAAGCGCCATCTAC” yielded a binding signal (RPM ratio (pull-down/input)) of 0.173.
“GATGATTGTTCTCCCAGCTGATGAATTGGGTAACTCGAGTAAACAAATTTTCCTAATCTTTCTGTTCAAGCGCCATCTAC” showed a binding signal (RPM ratio (pull-down/input)) of 0.873.
Sequence “GATGATTGTTCTCCCAGCTGATGAATTGAAGTTTTCGAGTAAACAAATTTTCCTAATCTTTCTGTTCAAGCGCCATCTAC” has a binding signal (RPM ratio (pull-down/input)) of 0.499.
“GATGATTGTTCTCCCAGCTGATGAATTAGAAAGGTCGAGTAAACAAATTTTCCTAATCTTTCTGTTCAAGCGCCATCTAC” was tested, and the binding signal (RPM ratio (pull-down/input)) was 0.164.
“GATGATTGTTCTCCCAGCTGATGAATTTGCTATCTCGAGTAAACAAATTTTCCTAATCTTTCTGTTCAAGCGCCATCTAC” showed a binding signal (RPM ratio (pull-down/input)) of 4.84.
“GATGATTGTTCTCCCAGCTGATGAATTAGTTAAGTCGAGTAAACAAATTTTCCTAATCTTTCTGTTCAAGCGCCATCTAC” was tested, and the binding signal (RPM ratio (pull-down/input)) was 0.367.
For “GATGATTGTTCTCCCAGCTGATGAATTTAGTCACTCGAGTAAACAAATTTTCCTAATCTTTCTGTTCAAGCGCCATCTAC”, the binding signal (RPM ratio (pull-down/input)) was 1.04.
“GATGATTGTTCTCCCAGCTGATGAATTTGAGTACTCGAGTAAACAAATTTTCCTAATCTTTCTGTTCAAGCGCCATCTAC” gave a binding signal (RPM ratio (pull-down/input)) of 1.82.
“GATGATTGTTCTCCCAGCTGATGAATTAGGGGCGTCGAGTAAACAAATTTTCCTAATCTTTCTGTTCAAGCGCCATCTAC” showed a binding signal (RPM ratio (pull-down/input)) of 0.63.
